Test results as given in PubChem BioAssay AID686978 (National Center for Advancing Translational Sciences (NCATS), 2013).
In all, about 420,000 compounds went through this assay and about 64,000 (15%) were called active. The shares of active, inactive and inconclusive entries below differ from those in the screen. Calls follow the shape of the dose curve; as a rule, active = well fitted inhibition curve with a large enough effect; inconclusive = small, poorly fitted or top-dose-only effect; inactive = flat fitted curve, though single readings scatter. Potencies of inconclusive entries are left out as doubtful fits.

Assay: qHTS for Inhibitors of human tyrosyl-DNA phosphodiesterase 1 (TDP1): qHTS in cells in absence of CPT; also: nearly all actives have a fitted effect of over 55% in size
Conditions: DT40 Tdp1-/- hTDP1 cells, no CPT, ATP luminescence, 48 h; activity change, negative = growth inhibition: at 46.2 µM (top of the series) unless noted
Method in brief: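 DT40 Tdp1-/-;hTDP1 cells, no CPT (DMSO vehicle only), 400 cells/well; compounds pin-transferred; ≥48 hr, 37 °C; CellTiter-Glo 30 min RT dark, luminescence read.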
% is scaled to controls: 0 for no effect and ±100 for the full control effect; potency is read from the fitted curve at half-maximal effect; tags tell the direction and shape of the fitted curve.

SMILES	Potency	activity change, negative = growth inhibition
COc1cc([C@@H]2c3cc4c(cc3C(O[C@@H]3O[C@@H]5COC(c6cccs6)O[C@H]5[C@H](O)[C@H]3O)C3COC(=O)[C@@H]32)OCO4)cc(OC)c1O (stereo partly drawn)	active: 0.013 µM	–
CCCCCCNC(=O)CNC(=S)N(Cc1cccs1)C1CCCCC1	inconclusive [inhibitor, partial curve]	–
CCOC(=O)c1scc(-c2ccc(C)cc2)c1S(=O)(=O)Nc1cccc(CC)c1	active: 13 µM	–
COc1ccc(C)cc1S(=O)(=O)N1CCC(C(=O)NCCc2ccccc2)CC1	inconclusive [inhibitor, partial curve, poor fit]	–
Cc1ccc(S(=O)(=O)C2(S(=O)(=O)c3ccc(C)cc3)CCCC2)cc1	active: 6.51 µM	–
Cc1cc(C(=O)CSc2nc3ccccc3c(=O)[nH]2)c(C)n1CC1CCCO1 (stereo not drawn)	active: 10.3 µM	–
Cc1cc(OCC(C)C)ccc1/C(O)=C1/C(=O)C(=O)N(Cc2cccnc2)C1c1ccncc1 (stereo not drawn)	–	inconclusive: -25.5% [inhibitor]
O=C(N/N=C/c1cccc(Br)c1)c1ccc(Cn2cc(Br)cn2)o1	inconclusive [inhibitor, single point]	–
Cc1ccc(Sc2ccc(NC(=O)CCN3C(=O)NC4(CCCC4)C3=O)cc2)c(C)c1	inconclusive [inhibitor, single point]	–
Cc1onc(-c2ccc(Br)cc2)c1C(=O)Nc1ccc(Br)cc1F	inconclusive [inhibitor, single point]	–
COc1cccc(CNc2ncc(-c3ccc(Br)cc3)n2C)c1	inconclusive [inhibitor, single point]	–
CN(C)c1ccc(C2=Cc3ccccc3C2)cc1	inconclusive [inhibitor, single point]	–
CCOCN(C(=O)Cn1c(CO)nc2ccccc21)c1c(C)cccc1CC	inconclusive [inhibitor, single point]	–
CC(C)C1/C(=N/O)CC(c2ccccc2)NC1c1ccccc1 (stereo not drawn)	active: 20.6 µM	–
CCOC(=O)C(C)NC(=O)C(NC(=O)C1CCC(CC)CC1)C(C)C (stereo not drawn)	inconclusive [inhibitor, single point]	–
CCN(c1ccccc1)S(=O)(=O)c1ccc(Oc2ccccc2C(C)=O)nc1	inconclusive [inhibitor, single point]	–
CC(C)N(C(=O)c1cc2c(Cl)nc3ccccc3c2s1)C1CCCCC1	–	inactive: -16.5%
Cc1c(CCC(=O)O)c(=O)oc2cc(OCc3ccc(Br)cc3)ccc12	–	inactive: 17%
COc1cc(NC(=O)c2cccs2)c(OC)cc1NC(=O)CCC(=O)Nc1cccc2ncccc12	inconclusive [inhibitor, single point]	–
CCOC(=O)c1cc(-c2ccccc2)sc1NC(=O)C(C)Sc1nnc(N)s1 (stereo not drawn)	inconclusive [inhibitor, partial curve]	–
C=CCn1c(=O)c(C(=O)Nc2ccc(C)cc2)c(O)c2ccccc21	active: 11.6 µM	–
Cc1nn(C)c(C(=O)NNC(=S)Nc2ccc(Cl)cc2)c1[N+](=O)[O-]	–	inactive: 1.94%

SMILES	Potency	activity change, negative = growth inhibition
COc1ccc(OC)c(NC(=O)CN(C)CC(=O)Nc2ccccc2Br)c1	inconclusive [inhibitor, single point]	–
Cc1ccc(OCCSc2ncnc3sc(C)c(C)c23)cc1C	inconclusive [inhibitor, partial curve]	–
COc1ccc(C(=O)NCc2nnc(SCC(=O)NC3CCCCC3)o2)cc1	–	inactive: 20.6%
Cc1cccc(C(=O)Nc2cc3c(cc2N2CCOCC2)n(C)c(=O)n3C)c1	–	inconclusive: -27.9% [inhibitor]
COc1ccc(S(=O)(=O)Oc2ccc3c(c2)O/C(=C\c2cccnc2)C3=O)cc1	active: 14.6 µM	–
CC(O)c1nc2ccccc2n1C(C)c1ccccc1 (stereo not drawn)	inconclusive [inhibitor, partial curve, poor fit]	–
Cc1cc(C)c(S(=O)(=O)N2CCN(Cc3nc4ccc(C)cc4o3)CC2)c(C)c1	inconclusive [inhibitor, single point]	–
COc1cccc(N2CCN(c3c(C#N)c(C(F)(F)F)nn3C)CC2)c1	active: 8.2 µM	–
COc1ccc(C(=O)C2CCN(C(=O)Nc3ccc(C)cc3)CC2)cc1	inconclusive [inhibitor, single point]	–
CC1=C(C(=O)Nc2cc(C)ccc2C)C2(CCCCCC2)OC1=O	inconclusive [inhibitor, partial curve, poor fit]	–
COn1c(SCc2ccccc2)nc2ccccc2c1=O	inconclusive [inhibitor, single point]	–
CSC1=C(C#N)C(c2ccc3c(c2)OCO3)C2=C(CCCC2=O)N1 (stereo not drawn)	–	inactive: -22.1%
Nc1c(-c2nc(-c3ccccc3)cs2)c2ccccn2c1C(=O)c1ccc2c(c1)OCO2	active: 6.51 µM	–
COc1ccc(CNc2ncc(-c3cccc([N+](=O)[O-])c3)n2C)c(OC)c1OC	inconclusive [inhibitor, single point]	–
CCN1C(C(=O)c2ccccc2)=C(OC(=O)COc2ccccc2)c2ccccc2S1(=O)=O	active: 16.4 µM	–
CS(=O)(=O)N1CCC(C(=O)Nc2cc(Cl)cc(Cl)c2)CC1	inconclusive [inhibitor, single point]	–
CCOc1ccc(NC(=O)Cn2cc(C(=O)c3ccc(C)cc3)c(=O)c3cc4c(cc32)OCCO4)cc1	–	inconclusive: -1.32% [inhibitor]
Cc1ccc2nc(CS)[nH]c2c1	inconclusive [inhibitor, single point]	–
CCOC(=O)C1(Cc2cccc(F)c2)CCN(Cc2cnn(CC)c2)CC1	inconclusive [inhibitor, single point]	–
Cc1ccccc1CC1(CO)CCCN(C(=O)c2ccc(F)cc2)C1 (stereo not drawn)	inconclusive [inhibitor, single point]	–
COc1ccc(CN2CCN(S(=O)(=O)c3ccc(NC(C)=O)cc3)CC2)cc1OC	inconclusive [inhibitor, partial curve]	–
